Laboratory results as given in PMC6919601, “Identification of Plasmodium dipeptidyl aminopeptidase allosteric inhibitors by high throughput screening” (PLoS ONE, 2019).
In all, about 110,000 compounds went through this assay and about 230 (0.21%) showed an effect of 50% or more. This is one part of the list.

Each compound was assayed against DPAP1 (Plasmodium falciparum, UniProt Q8IIJ9) (assay: primary screen, percent inhibition; read by cleavage of a fluorogenic dipeptide substrate; higher = more effect of the substance).
Parameters: species or system P. falciparum D10 trophozoite lysates; single well
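Further: 30 min substrate incubation versus DMSO and 10 µM JCP410 controls.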

Chain of DPAP1 (Q8IIJ9 whole entry, looked up): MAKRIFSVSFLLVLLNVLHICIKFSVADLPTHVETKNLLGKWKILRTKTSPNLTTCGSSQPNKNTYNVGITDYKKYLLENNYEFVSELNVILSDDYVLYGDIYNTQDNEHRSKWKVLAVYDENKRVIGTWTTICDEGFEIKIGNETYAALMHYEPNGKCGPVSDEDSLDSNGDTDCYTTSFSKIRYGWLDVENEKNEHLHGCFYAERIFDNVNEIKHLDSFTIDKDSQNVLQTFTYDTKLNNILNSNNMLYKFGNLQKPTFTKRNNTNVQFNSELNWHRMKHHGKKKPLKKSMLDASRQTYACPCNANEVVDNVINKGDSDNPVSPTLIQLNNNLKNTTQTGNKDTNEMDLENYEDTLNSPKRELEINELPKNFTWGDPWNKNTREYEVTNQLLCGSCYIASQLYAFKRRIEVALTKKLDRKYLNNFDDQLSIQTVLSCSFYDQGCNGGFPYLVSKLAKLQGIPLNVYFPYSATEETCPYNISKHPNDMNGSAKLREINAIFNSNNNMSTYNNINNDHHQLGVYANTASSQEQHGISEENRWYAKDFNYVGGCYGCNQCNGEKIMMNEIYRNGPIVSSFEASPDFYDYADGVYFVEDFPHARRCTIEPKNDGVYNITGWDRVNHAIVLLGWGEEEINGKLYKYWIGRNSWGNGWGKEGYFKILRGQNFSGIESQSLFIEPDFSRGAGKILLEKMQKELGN

Row | Compound | % Inhibition @ 10 uM
1 | CN1CCCN(Cc2ccccc2Br)CC1 | 1.4%
2 | Oc1ccc(C2=NN(c3ccccc3)C(C=C(Cl)Cl)C2)cc1 (stereo not drawn) | -1.76%
3 | O=C(Nc1ccc(-c2ccccc2)cc1)c1ccccc1Br | -3.79%
4 | COCCC/N=c1/c(-c2ccccc2)c(O)c1=O | -2.87%
5 | COc1ccc(-c2c3c(=O)n(C)c(=O)n(C)c3c3c(COc4ccccc4)nc4ccccc4n23)cc1 | -1.43%
6 | COc1cc(NC(=O)/C=C/c2ccc(C(C)C)cc2)c(OC)cc1Cl | -3.77%
7 | COc1ccc(C(=O)Nc2cccc(C(C)=O)c2)cc1 | -0.641%
8 | CCOC(=O)c1c(NC(=O)C(C)Oc2ccc(OC)cc2)sc2c1CCC(C)C2 (stereo not drawn) | 1.26%
9 | CCN(CC)c1ccc(NC(=O)c2cccc(OC(F)F)c2)cc1 | -1.22%
10 | Cc1cc2nn(-c3ccccc3)nc2cc1N | 4.08%
11 | Cc1cccc(Oc2nc3ccccn3c(=O)c2/C=C(\C#N)C(=O)NCc2ccccc2)c1C | 0.315%
12 | CC(NC(=O)CCn1nc(-c2ccc(Cl)cc2)ccc1=O)c1ccccc1 (stereo not drawn) | 3.04%
13 | COc1cc(CN2CCN(Cc3cc(OC)c4c(c3)OCO4)CC2)cc2c1OCO2 | -13%
14 | O=C(C1=C(O)C(=O)N(Cc2ccco2)C1c1ccc(O)cc1)c1cc2ccccc2o1 (stereo not drawn) | 2.87%
15 | CN1CCN(C(=O)CN2Cc3ccccc3C2=O)CC1 | -2.69%
16 | CCn1ncc(C(=O)Nc2ccc(C)cc2Br)c1C | 9.83%
17 | Cc1c(Cl)cccc1N(CC(=O)NCc1ccccc1)S(=O)(=O)c1ccccc1 | -0.0947%
18 | COc1ccc(C(=S)Nc2ccccc2)cc1 | 1.92%
19 | Cc1ccc2c(c1)C(O)(C1COC(C)(C)CC1=O)C(=O)N2 (stereo not drawn) | -1.32%
20 | N#CCNC(=O)C1(NC(=O)c2csc(N3CCC(N4CCOCC4)CC3)n2)CCCCC1 | -8.26%
21 | NS(=O)(=O)c1ccc(CCNc2ncnc3c2cnn3-c2ccc(Cl)cc2)cc1 | 2.95%
22 | CCc1nn(C(CC)C(=O)NCc2ccc(Cl)cc2)c(=O)c2cc3occc3n12 (stereo not drawn) | -2%
23 | O=C(C1=C(O)C(=O)N(c2ccccn2)C1c1cccnc1)c1cccc(Br)c1 (stereo not drawn) | -5.82%
24 | CC(C)N1CCN(c2nc3c(N)ncnc3[nH]2)CC1 | -1.15%
25 | Cc1cc2nsnc2c(S(=O)(=O)N2CCN(C)CC2)c1C | -1.33%
26 | CC(C)(C)c1ccc(-c2nc3cc(N)ccc3o2)cc1 | -2.03%

Row | Compound | % Inhibition @ 10 uM
27 | O=C(C(NS(=O)(=O)c1cccc2nsnc12)c1ccccc1)N1CCc2ccccc2C1 (stereo not drawn) | -3.23%
28 | Cc1cc(C)n2nc(SCC(=O)N3CCN(c4ccccn4)CC3)nc2n1 | -4.29%
29 | N#CCNC(=O)C(Cc1ccc(O)c(I)c1)NC(=O)c1ccc(N2CCOCC2)cc1 (stereo not drawn) | -4.72%
30 | CCc1nc(O)c2oc3ccccc3c2n1 | 2.46%
31 | CCSc1ncc(Cl)c(C(=O)N(Cc2ccc(OC)c(OC)c2)C2CCS(=O)(=O)C2)n1 (stereo not drawn) | 0.569%
32 | COc1ccc(CCC(=O)Nc2cccc(Cl)c2)cc1 | -0.318%
33 | O=S1(=O)N=C(Nc2ccc(Cl)c(C(F)(F)F)c2)c2ccccc21 | -2.05%
34 | COc1ccc(NCc2c(Cl)cccc2Cl)cc1 | 3.48%
35 | Cc1nc2c(-c3ccccc3)c(C)nn2c(O)c1Cc1ccccc1 | -0.339%
36 | O=C(NCCc1ccc(Cl)cc1)C(CS(=O)(=O)Cc1ccccc1)N1Cc2ccccc2C1=O (stereo not drawn) | -2.69%
37 | COc1ccc(CN2CCN(Cc3cccn3C)CC2)c(OC)c1OC | -3.4%
38 | Cc1cc(C)cc(NC(=O)CCCC(=O)Nc2cc(C)cc(C)c2)c1 | -0.68%
39 | Cc1nc2cc(S(=O)(=O)N3CCC(C(=O)NCCC4=CCCCC4)CC3)ccc2n1C1CCCC1 | -0.0309%
40 | COc1ccc2c(c1)C(S(=O)(=O)c1ccc(C)cc1)c1ccccc1O2 (stereo not drawn) | -1.69%
41 | c1ccc2sc(SCCCN3CCCCC3)nc2c1 | -3.93%
42 | COc1ccc(/C(O)=C/C=N/Cc2ccc(C)cc2)cc1 | -0.105%
43 | CCCCn1c(=O)cc(C)n(-c2ccccc2)c1=O | 1.19%
44 | COc1cc(C=C2C(=O)NC(=O)NC2=O)cc(Cl)c1O | 2.7%
45 | COc1ccc(-c2cc(C(F)(F)F)n3ncc(C(=O)N(C)Cc4cn(C)nc4C)c3n2)cc1OC | 3.9%
46 | O=C(Cn1c(-c2cccs2)cc2ccccc21)NCc1cccc(F)c1 | -5.15%
47 | Cc1ccc(NC(=O)c2c(O)nc3c(c2O)CCCC3)nc1 | 1.2%
48 | Cc1nn(CC(=O)NCCCc2ccccc2)c(=O)c2c1sc1ccccc12 | -2.13%
49 | CC12CN3CC(c4ccccc4)(CN(C1)C3c1ccco1)C2=O (stereo not drawn) | -4.02%
50 | COc1ccc(CNCCc2c[nH]c3ccc(OC)cc23)cc1 | -1.11%
51 | Cc1coc2c1c(C)cc1oc(=O)c(CC(=O)NCc3ccc4c(c3)OCO4)c(C)c12 | 4.13%
